Paper PMC10668032
The list shows a part of the results. At the low end of the ranking the order means little.

The sequences below were run against SIX1 homeodomain (reference allele) (UniProt Q15475) (assay: universal protein binding microarray). Conditions: Universal all-10-mer PBM (8x60K, AMADID 030236), 300 nM GST-tagged protein, Alexa Fluor 488 anti-GST; buffer, salt, pH and temperature not stated; high values mean tight binding; most listed sequences are background and not binding sites; double strand, one strand shown.
Work on ACCCTCTG yielded a binding signal of -0.00815 E-score. CAGGCTCC showed a binding signal of -0.0533 E-score. Sequence CACACCGA has a binding signal of 0.116 E-score. Sequence CGACGATC has a binding signal of 0.215 E-score. In the case of CGGGGATC, the binding signal is reported as 0.396 E-score. GCAAAGAA was tested, and the binding signal was -0.14 E-score. AAATAGTC showed a binding signal of 0.0496 E-score. Sequence CAAAACCG has a binding signal of -0.163 E-score. In the case of CCATCATA, the binding signal is reported as 0.122 E-score. With AATTTAAC the binding signal was -0.156 E-score. For CCTTGTAA, the binding signal was 0.0139 E-score. With TGTGCACA the binding signal was -0.212 E-score. Sequence AAGATGTA has a binding signal of 0.0744 E-score. In the case of GTAGGATA, the binding signal is reported as 0.355 E-score. GCCCGGTA gave a binding signal of 0.0524 E-score. With ACTCGCCA the binding signal was -0.12 E-score. ATTCCCCC showed a binding signal of -0.00785 E-score. For AGTGCTAC, the binding signal was -0.0437 E-score. Sequence CAGGCATC has a binding signal of 0.116 E-score. Sequence CTAGTGAG has a binding signal of 0.0595 E-score. For ATGGGATA, the binding signal was 0.36 E-score. In the case of CTACAGAG, the binding signal is reported as -0.00194 E-score. TGACCCCA was tested, and the binding signal was 0.198 E-score. GAGATATA was tested, and the binding signal was 0.359 E-score. Work on ATCGAGGG yielded a binding signal of 0.163 E-score. With AATACTGC the binding signal was 0.162 E-score. CCGCGTAG gave a binding signal of 0.0672 E-score. In the case of CAAGTTAG, the binding signal is reported as -0.0412 E-score. Sequence AAGTTTCG has a binding signal of -0.279 E-score. For CCTTACAG, the binding signal was -0.118 E-score. Work on CATGTTAG yielded a binding signal of -0.132 E-score. In the case of ACTGCCAG, the binding signal is reported as -0.128 E-score. Work on ATGAGGCA yielded a binding signal of -0.246 E-score. With AACCAGGG the binding signal was -0.00766 E-score. For TAGACCCA, the binding signal was -0.0788 E-score. CGAGTGTC showed a binding signal of -0.00468 E-score. ATACGGGA gave a binding signal of 0.367 E-score. Sequence AGTTCGGA has a binding signal of -0.136 E-score. For AACGCCCC, the binding signal was -0.0812 E-score. TCCAATCA showed a binding signal of -0.23 E-score. Work on AGACAAGC yielded a binding signal of -0.17 E-score. Sequence AAGTGACG has a binding signal of -0.149 E-score. AGGCGCCT was tested, and the binding signal was -0.0587 E-score. With AACTTTTG the binding signal was -0.294 E-score. In the case of AGACTAAG, the binding signal is reported as -0.0785 E-score. In the case of AGGTTCAT, the binding signal is reported as -0.0209 E-score. GTATAGTA showed a binding signal of 0.285 E-score. In the case of GCTAGCGA, the binding signal is reported as -0.00957 E-score. GTAGAGAC was tested, and the binding signal was -0.241 E-score. Sequence CACGATTC has a binding signal of -0.0498 E-score. TTTACAAA gave a binding signal of -0.175 E-score. Sequence ACCCGGTA has a binding signal of 0.244 E-score. ACAGTCTC gave a binding signal of -0.141 E-score. With AGTGGATC the binding signal was 0.359 E-score. GGGATATA gave a binding signal of 0.433 E-score. TCGCAACA showed a binding signal of -0.168 E-score. With AGTTCTTC the binding signal was -0.111 E-score. ATTTATTG gave a binding signal of -0.177 E-score. Work on CTGCGGAA yielded a binding signal of -0.161 E-score. In the case of CACAGGGA, the binding signal is reported as 0.00358 E-score. In the case of ATCTCGTA, the binding signal is reported as 0.232 E-score. ACATGCGC showed a binding signal of -0.21 E-score. GTTATTCA was tested, and the binding signal was -0.0757 E-score. For CAAAACAA, the binding signal was -0.362 E-score. For ATTAAGAG, the binding signal was 0.0972 E-score. Work on AAGCAAAG yielded a binding signal of -0.0886 E-score. With GGGTCCCA the binding signal was -0.197 E-score. AGACGTTG gave a binding signal of -0.138 E-score. TGCAGGCA was tested, and the binding signal was -0.108 E-score. TAACGTGA gave a binding signal of -0.000625 E-score. CAAAACAG was tested, and the binding signal was -0.0236 E-score. Work on GATTCCCA yielded a binding signal of -0.0427 E-score. AACGTCCG gave a binding signal of -0.17 E-score. Work on GATGTTGC yielded a binding signal of -0.0769 E-score. With GGGAGTTA the binding signal was -0.0269 E-score. AGGCGCTG showed a binding signal of -0.2 E-score. For GATAGCTA, the binding signal was 0.207 E-score. For AGGTAGTG, the binding signal was 0.1 E-score. With AGACAATG the binding signal was -0.172 E-score. For AGGCCCGC, the binding signal was -0.283 E-score. CCAAGTCC gave a binding signal of -0.193 E-score. In the case of ACTGACAG, the binding signal is reported as -0.159 E-score. TAACAAAA was tested, and the binding signal was -0.273 E-score. GATGATAC showed a binding signal of 0.484 E-score. Sequence AAGATGCT has a binding signal of -0.123 E-score. Work on ACCGAACT yielded a binding signal of -0.0891 E-score. CCGCCTCC showed a binding signal of -0.147 E-score. Sequence AGTTTTTG has a binding signal of -0.0896 E-score. CATGCCGG showed a binding signal of 0.0882 E-score. Work on CATAAACC yielded a binding signal of 0.19 E-score. For CGATATGA, the binding signal was 0.311 E-score. ACCAGTGC gave a binding signal of 0.0391 E-score. AAGGAAGG gave a binding signal of -0.144 E-score. Work on ATTCTTGA yielded a binding signal of 0.0269 E-score.
